Experimental data from a collection of fitness landscapes (doi:10.1126/science.1257360).
This is one part of the list.

B1: PhoQ; a variant is named by its letters at X, in order, P23837 (parent)
chain: MKKLLRLFFPLSLRVRFLLATAAVVLVLSLAYGMVALIGYSVSFDKTTFRLLRGESNLFYTLAKWENNKLHVELPENIDKQSPTMTLIYDENGQLLWAQRDVPWLMKMIQPDWLKSNGFHEIEADVNDTSLLLSGDHSIQQQLQEVREDDDDAEMTHSVAVNVYPATSRMPKLTIVVVDTIPVELKSSYMVWSWFIYVLSANLLLVIPLLWVAAWWSLRPIEALAKEVRELEEHNRELLNPATTRELTSLVRNLNRLLKSERERYDKYRTTLTDLTHSLKTPLXXLQXXLRSLRSEKMSVSDAEPVMLEQISRISQQIGYYLHRASMRGGTLLSRELHPVAPLLDNLTSALNKVYQRKGVNISLDISPEISFVGEQNDFVEVMGNVLDNACKYCLEFVEISARQTDEHLYIVVEDDGPGIPLSKREVIFDRGQRVDTLRPGQGVGLAVAREITEQYEGKIVAGESMLGGARMEVIFGRQHSAPKDE

Variants of: B1
Experiment: enrichment ratio after two sorts for PhoP signalling (ratio (wild type AVST 3.29)); higher = more functional
Conditions: with PhoP (E. coli)

Variant | enrichment ratio
ICNH | ≤ 0.25
RDLC | ≤ 0.25
LCDK | ≤ 0.25
FRCH | ≤ 0.25
MTIA | ≤ 0.25
HSMK | ≤ 0.25
LHKV | ≤ 0.25
VFRD | ≤ 0.25
DVHQ | ≤ 0.25
DLVF | ≤ 0.25
HVMI | ≤ 0.25
YFIC | ≤ 0.25
ERAQ | ≤ 0.25
WHIL | ≤ 0.25
LPEI | ≤ 0.25
REYI | ≤ 0.25
VPNE | ≤ 0.25
VPFM | ≤ 0.25
MTEV | ≤ 0.25
MCDL | ≤ 0.25
FKSQ | ≤ 0.25
GFDL | ≤ 0.25
ITTD | ≤ 0.25
PQDM | ≤ 0.25
NPTN | ≤ 0.25

Variant | enrichment ratio
MVHS | ≤ 0.25
DMNN | ≤ 0.25
FYMT | ≤ 0.25
QFWE | ≤ 0.25
PFKE | ≤ 0.25
MRND | ≤ 0.25
YMIH | ≤ 0.25
EAPP | ≤ 0.25
DQDR | ≤ 0.25
DIEK | ≤ 0.25
IFTG | ≤ 0.25
EGQP | ≤ 0.25
HDSM | ≤ 0.25
DAWF | ≤ 0.25
SIQL | 13.1
KFGF | ≤ 0.25
PDFQ | ≤ 0.25
FAKC | ≤ 0.25
YGVY | ≤ 0.25
YQMQ | ≤ 0.25
GCPH | ≤ 0.25
WMSS | ≤ 0.25
GMAM | 24.3
KHRC | ≤ 0.25
MCVQ | ≤ 0.25

Variant | enrichment ratio
DACQ | ≤ 0.25
RWDK | ≤ 0.25
QAWD | ≤ 0.25
PIYL | ≤ 0.25
FMLE | ≤ 0.25
VSEH | ≤ 0.25
ILMT | ≤ 0.25
YWVN | ≤ 0.25
PMKF | ≤ 0.25
AMWS | ≤ 0.25
LPST | ≤ 0.25
AGAI | 8.77
ATGK | ≤ 0.25
LWQV | ≤ 0.25
YSLE | 6.07
PHIA | ≤ 0.25
RYND | ≤ 0.25
VNAL | 3.91
THKD | ≤ 0.25
PYDH | ≤ 0.25
GEIT | ≤ 0.25
RMSA | ≤ 0.25
GFVS | ≤ 0.25
YRAV | ≤ 0.25
VMRG | ≤ 0.25

Variant | enrichment ratio
MQFH | 9.86
RGKH | ≤ 0.25
IKMT | ≤ 0.25
PGHT | ≤ 0.25
QNLV | ≤ 0.25
PWHC | ≤ 0.25
RPDW | ≤ 0.25
DFCF | ≤ 0.25
AMDD | ≤ 0.25
PFKH | ≤ 0.25
TYVD | ≤ 0.25
NGRH | ≤ 0.25
WMNH | ≤ 0.25
GRLR | ≤ 0.25
PKAS | ≤ 0.25
MPIP | ≤ 0.25
RMMG | ≤ 0.25
LNDG | ≤ 0.25
EVFV | ≤ 0.25
FPIG | ≤ 0.25
TILH | ≤ 0.25
EHHT | ≤ 0.25
MADI | ≤ 0.25
ECYI | ≤ 0.25
WSYC | ≤ 0.25

Variant | enrichment ratio
PCRF | ≤ 0.25
YISQ | 0.456
SQDC | ≤ 0.25
ILKI | ≤ 0.25
QAFA | 7.62
YRRI | ≤ 0.25
KYIS | ≤ 0.25
QPPA | ≤ 0.25
WFFF | ≤ 0.25
AIIQ | 5.33
SHHT | ≤ 0.25
CFNI | ≤ 0.25
NHCH | ≤ 0.25
VQAM | ≤ 0.25
QDAD | ≤ 0.25
WHQS | ≤ 0.25
GVCN | ≤ 0.25
RYPD | ≤ 0.25
NRLD | ≤ 0.25
PGTG | ≤ 0.25
SHHL | ≤ 0.25
LRNY | ≤ 0.25
VGHI | ≤ 0.25
KAYY | ≤ 0.25
GMGF | ≤ 0.25

Variant | enrichment ratio
MKNL | ≤ 0.25
EFAA | ≤ 0.25
MTSL | 7.89
ISTS | ≤ 0.25
WETY | ≤ 0.25
VFQH | ≤ 0.25
MGAC | 6.95
ICTL | ≤ 0.25
VMSF | ≤ 0.25
FTWT | ≤ 0.25
LRYH | ≤ 0.25
MVVK | ≤ 0.25
NESP | ≤ 0.25
YFFM | ≤ 0.25
NIDR | ≤ 0.25
VNKL | ≤ 0.25
HFAM | ≤ 0.25
KFEP | ≤ 0.25
SWDF | ≤ 0.25
VEEG | ≤ 0.25
QHNT | ≤ 0.25
IASH | ≤ 0.25
DLTC | ≤ 0.25
ERDT | ≤ 0.25
NICP | ≤ 0.25

Variant | enrichment ratio
MMQD | ≤ 0.25
LFFD | ≤ 0.25
DNAM | ≤ 0.25
ITAC | ≤ 0.25
ITCF | ≤ 0.25
EVNR | ≤ 0.25
NEDI | ≤ 0.25
HWSF | ≤ 0.25
WDSH | ≤ 0.25
TEQT | 23.1
HGDF | ≤ 0.25
LCQG | ≤ 0.25
ISCI | 1.38
ETSF | ≤ 0.25
HEVS | ≤ 0.25
IKNA | ≤ 0.25
RHTY | ≤ 0.25
FKKV | ≤ 0.25
EWRS | ≤ 0.25
AFDK | ≤ 0.25
TWKC | ≤ 0.25
DAVK | ≤ 0.25
PRKN | ≤ 0.25
FTTY | ≤ 0.25
SQYQ | ≤ 0.25

Variant | enrichment ratio
KISW | ≤ 0.25
DTRT | ≤ 0.25
NWQN | ≤ 0.25
RNFP | ≤ 0.25
TWFT | ≤ 0.25
MGLR | ≤ 0.25
LACY | ≤ 0.25
QYGY | ≤ 0.25
YMCM | ≤ 0.25
LQTC | ≤ 0.25
GIFL | ≤ 0.25
SKNS | ≤ 0.25
MDQF | ≤ 0.25
LVIP | ≤ 0.25
FKTY | ≤ 0.25
SPRH | ≤ 0.25
KHLP | ≤ 0.25
NHGV | ≤ 0.25
CRAS | ≤ 0.25
PRLS | ≤ 0.25
